# Test results taken from paper PMC4336329 (PLoS ONE, 2015).
# Hit rate of the full screen: of about 310,000 compounds, about 2,200 (0.71%) showed an effect of 50% or more. Effects have a minus sign here. Some of the results follow.
# Target: human ether-à-go-go-related gene (hERG) potassium channel (human, UniProt Q12809)
# Assay: primary screen, population patch clamp on CHO cells stably expressing hERG
# human ether-à-go-go-related gene (hERG) potassium channel, sequence (Q12809 whole entry, looked up): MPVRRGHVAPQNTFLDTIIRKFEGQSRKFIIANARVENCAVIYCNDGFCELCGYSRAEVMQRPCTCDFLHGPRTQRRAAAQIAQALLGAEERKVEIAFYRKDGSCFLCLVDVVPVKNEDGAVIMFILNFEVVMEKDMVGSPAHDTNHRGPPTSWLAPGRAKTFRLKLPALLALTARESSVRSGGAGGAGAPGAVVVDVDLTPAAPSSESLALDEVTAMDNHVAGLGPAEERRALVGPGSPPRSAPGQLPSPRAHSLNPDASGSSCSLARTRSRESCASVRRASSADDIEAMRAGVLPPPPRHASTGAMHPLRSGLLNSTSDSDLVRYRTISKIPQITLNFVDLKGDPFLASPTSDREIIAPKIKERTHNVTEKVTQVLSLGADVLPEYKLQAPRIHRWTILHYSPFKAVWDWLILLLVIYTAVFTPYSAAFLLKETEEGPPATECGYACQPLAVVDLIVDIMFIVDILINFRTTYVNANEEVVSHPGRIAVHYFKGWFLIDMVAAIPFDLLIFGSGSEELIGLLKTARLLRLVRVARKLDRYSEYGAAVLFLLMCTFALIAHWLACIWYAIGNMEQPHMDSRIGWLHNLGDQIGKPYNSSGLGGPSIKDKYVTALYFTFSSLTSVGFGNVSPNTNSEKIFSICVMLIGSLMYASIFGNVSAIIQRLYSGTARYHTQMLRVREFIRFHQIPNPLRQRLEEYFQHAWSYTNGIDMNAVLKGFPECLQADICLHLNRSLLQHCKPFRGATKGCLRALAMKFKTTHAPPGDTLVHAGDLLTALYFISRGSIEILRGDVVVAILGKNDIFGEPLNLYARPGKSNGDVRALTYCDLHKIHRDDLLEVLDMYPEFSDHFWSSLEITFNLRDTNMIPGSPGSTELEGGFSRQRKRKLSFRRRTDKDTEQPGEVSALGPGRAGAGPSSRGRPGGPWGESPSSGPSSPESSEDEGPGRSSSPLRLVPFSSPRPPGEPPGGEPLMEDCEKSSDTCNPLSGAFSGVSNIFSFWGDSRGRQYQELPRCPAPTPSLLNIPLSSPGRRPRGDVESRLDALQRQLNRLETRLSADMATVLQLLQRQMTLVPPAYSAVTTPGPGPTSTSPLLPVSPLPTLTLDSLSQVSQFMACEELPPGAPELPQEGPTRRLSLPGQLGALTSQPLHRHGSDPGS
row,Compound,"hERG current change (%, negative = inhibition) at 1uM [%]"
1,CC(Oc1ccccc1)C(=O)NC1CCCCCCC1 (centres unmarked),10.9
2,CC(=O)c1ccc(N2CCN(S(=O)(=O)c3ccc(-c4cnc(C5CC5)o4)cc3)CC2)cc1,12.7
3,N/C(=N/OCC(=O)Nc1cccc2ccccc12)c1nonc1N,-0.926
4,CC(C)(C)N(NC(=O)Nc1ccccc1)C(=O)c1ccccc1,11.9
5,Cc1ccc(C)c(Oc2coc3cc(O)ccc3c2=O)c1,0.658
6,COc1cc(F)ccc1S(=O)(=O)N1CCN(c2ccccc2)CC1,8.34
7,Cc1ccc(CSCCNC(=O)c2ccc(NS(C)(=O)=O)cc2)cc1,-6.66
8,COc1ccc(-c2nnc(NC(=O)C3CCCN3S(=O)(=O)c3cccs3)o2)cc1 (centres unmarked),10.3
9,COc1ccc(CCNCC(=O)Nc2ccc(C)c(S(=O)(=O)N(C)C)c2)cc1.O=C(O)C(=O)O,-7.32
10,COc1cc(/C=N/O)cc(Br)c1OS(=O)(=O)c1ccc(C)cc1,8.96
11,CCOC(=O)c1c(C)[nH]c(C)c1S(=O)(=O)N(C)CC(=O)N1CCN(c2ccc(OC)cc2)CC1,1.58
12,CCn1c(C)nc2cc(S(N)(=O)=O)ccc21,17.8
13,CCCOC(=O)c1ccc(NC(=O)CCC(=O)OCC)cc1,5.04
14,CC(Oc1cccc(Cl)c1)C(=O)Nc1ccccc1N1CCCC1 (centres unmarked),3.4
15,CCOC(=O)c1[nH]c(=O)[nH]c1CNc1ccccc1C#N,16.1
16,COc1ccc(-c2nc(CS(=O)(=O)CC(=O)Nc3ccc(Cl)cc3)c(C)o2)cc1,10.2
17,COc1ccc(F)cc1S(=O)(=O)Nc1cccc(C(=O)O)c1,3.88
18,COc1ccc(S(=O)(=O)N(C)C)cc1NS(=O)(=O)c1ccc(F)c(F)c1F,10.6
19,CCOP(=O)(/C(C#N)=C(/O)c1ccccc1)c1ccccc1 (centres unmarked),13.6
20,Nc1cc(=O)[nH]c(SCC(=O)Nc2cc(Cl)ccc2Cl)n1,6.76
21,COc1ccc(NC(=O)CSc2nnc3ccc(-c4ccncc4)nn23)cc1OC,5.11
22,FC(F)(F)c1nnc2c(Sc3ccc(Cl)cc3)nc3ccccc3n12,11.9

row,Compound,"hERG current change (%, negative = inhibition) at 1uM [%]"
1,Cc1ccc(C(C(=O)NC2CCCCC2)N(Cc2cccnc2)C(=O)c2csnn2)cc1 (centres unmarked),1.4
2,COc1cccc(C2C(C(=O)/C=C/c3ccco3)=C(O)C(=O)N2CCN2CCOCC2)c1 (centres unmarked),10.5
3,CNc1nc(CC(C)=O)ns1,6.99
4,O=C(NCCc1c[nH]c2ccccc12)c1cc([N+](=O)[O-])cc([N+](=O)[O-])c1,3.96
5,O=c1c2ccccc2nc(SCc2nnc(-c3ccccc3Br)o2)n1-c1ccccc1,-2.2
6,COCCN(C(=O)COC(=O)CCOc1ccccc1)c1c(N)n(Cc2ccccc2)c(=O)[nH]c1=O,14.9
7,COc1cc(/C=N/NC(=O)c2cnn3c(C)cc(-c4ccccc4)nc23)ccc1O,5.69
8,O=C(NCCc1ccccc1)c1ccc(NC(=O)c2cccnc2)cc1,8.3
9,Nc1ccc2nc(-c3cc(Cl)c(N)c(Cl)c3)[nH]c2c1,5.16
10,COc1ccc2c(c1)c1nnc(SCC(=O)N3C(C)CCCC3C)nc1n2C (centres unmarked),-4
11,Cc1ccc(C)c(NC(=O)C(OC(=O)c2cnc(C)cn2)c2ccccc2)c1 (centres unmarked),11
12,O=C(CSC1=NCCS1)N1CCN(c2ccc(Cl)cc2)CC1,-8.24
13,Cc1ccc(C(C(=O)NC2CCCCC2)N2CCC3(CC2)OCCO3)cc1 (centres unmarked),10.1
14,Cc1ccc(S(=O)(=O)N(CC(=O)Nc2ccccc2)C(=O)N2CCN(C)CC2)cc1,16.5
15,COc1ccc(C(C(=O)NC2CCCC2)N(C(=O)c2ccoc2C)c2cc(C)cc(C)c2)cc1 (centres unmarked),4.95
16,CN(C)S(=O)(=O)c1ccc(Cl)c(NC(=O)COC(=O)c2cc(-c3ccccc3)nc3ccccc23)c1,13
17,COc1cc(C(=O)Nc2ccc(S(=O)(=O)N3CCOCC3)cc2)c([N+](=O)[O-])cc1OC,19.5
18,COc1ccc(CNC(=O)C(=O)NCCCn2ccnc2)cc1,18.9
19,COc1ccc(NC(=O)CSCC(=O)Nc2nnc(C3CC3)s2)cc1,17.5
20,COc1cc(-c2nc(C(=O)NC3CCN(Cc4ccccc4)CC3)cc3c2[nH]c2ccccc23)cc(OC)c1OC,7.8
21,N#Cc1c(Nc2ccc(Cl)cc2)s[nH]c1=O,2.9
22,Cc1cccc(N2CC(C(=O)Nc3nnc(SCCC4OCCO4)s3)CC2=O)c1 (centres unmarked),10.4

row,Compound,"hERG current change (%, negative = inhibition) at 1uM [%]"
1,O=C(C[n+]1ccc(/C=N/O)cc1)N1CCCCC1.[Cl-],15
2,COc1ccc(C(=O)Nc2ccccc2C(=O)N(Cc2ccco2)C(C(N)=O)C(C)C)cc1 (centres unmarked),12.4
3,Cc1oc(-c2cccs2)nc1CN1CCN(Cc2ccc(F)c(F)c2)C(CCO)C1 (centres unmarked),-18.2
4,COc1ccccc1NC(=O)Cn1nnc(-c2ccccc2NS(=O)(=O)c2ccccc2)n1,7.71
5,Cn1c(=O)n(C)c2cc(CN3C(=O)OC(C)(C)C3(C)O)ccc21 (centres unmarked),10.4
6,CCOc1ccc(NS(=O)(=O)c2cc(C(=O)N3CCN(C(C)=O)CC3)ccc2Cl)cc1,13
7,O=C(c1ccc2c(=O)n(Cc3ccccc3)c(=S)[nH]c2c1)N1CCCC1,12.7
8,O=C(Cn1ncc(Cl)c(Cl)c1=O)NC1CCCCC1,-7.92
9,CCOc1ccc(NC(=O)c2cnc3scc(C)n3c2=O)cc1,6.74
10,Cc1ccc(CNC(=O)c2ccc(CS(=O)Cc3ccccc3Cl)o2)cc1 (centres unmarked),15
11,S=C(Nc1cccnc1)NC1CC2CCC1C2 (centres unmarked),16.5
12,CCCCOc1ccc(C(=O)Nc2cc(C)c(OCC(=O)N3CCOCC3)c(C)c2)cc1,-2.41
13,OC(c1cc(-c2ccc(C(F)(F)F)cc2)nc(C(F)(F)F)c1)C1CCCCN1 (centres unmarked),11.4
14,C=CCn1c(SCC(=O)Nc2nc(C)cs2)nnc1C(NC(=O)c1ccccc1)C(C)C (centres unmarked),9.32
15,Cc1ccc(NC(=O)Nc2ccc3c(c2)OCO3)c(OC(F)F)c1,-0.268
16,COc1cccc(CNC(=O)CCC2CCCN(Cc3ccc4c(c3)CCO4)C2)c1 (centres unmarked),-16.4
17,CCOc1ccccc1NC(=O)Cc1cccs1,11.3
18,c1ccc(C[C@H]2CNCCN2CC2(c3ccccc3)CC2)cc1,3
19,CC1CCN(C(=O)C2CCN(S(=O)(=O)c3cc(Cl)ccc3Cl)CC2)CC1,7.12
20,O=C(Nc1ccc(F)cc1)c1cc(S(=O)(=O)N2CCCCC2)ccc1F,-1.38
21,COc1ccc(C(=O)Nc2ccc(C(=O)OCC(=O)c3ccccc3)cc2)cc1,0.867
22,Cc1ccc(Sc2ncccc2C(=O)NCc2cc([N+](=O)[O-])ccc2O)cc1C,9.24

row,Compound,"hERG current change (%, negative = inhibition) at 1uM [%]"
1,CCC(CC)c1nnc(NC(=O)c2cccc(S(=O)(=O)N3CCc4ccccc43)c2)s1,13.3
2,Cc1ccccc1OCCOCCN1CCCCCC1.O=C(O)C(=O)O,-10.8
3,Cc1c(C(=O)N2CCCCC2)c(S(=O)(=O)NCCc2ccccc2)c(C)n1C,11.5
4,COC(=O)c1nnn(Cc2ccccc2)c1N,13.7
5,Nc1cc(=O)[nH]c(SCc2nnnn2-c2ccc(Cl)cc2)n1,4.85
6,CC(=O)c1cccc(NC(=O)COC(=O)c2ccc3c(c2)OCCO3)c1,5.83
7,COc1ccccc1CNC(=O)c1csc2c1CCCC2,15
8,COc1ccc(-n2c(C)cc(C(=O)COC(=O)c3cc(OC)c(OC)cc3NC(=O)c3cccs3)c2C)cc1,6.49
9,COc1ccccc1NC(=O)Nc1nnc(CC(=O)Nc2ccccc2)s1,-3.09
10,O/N=C/c1c[nH]c2ccccc12,10
11,CC(=O)Nc1ccc2c(c1)nc(CCN1CCN(c3ccccn3)CC1)n2C,12
12,COc1cccc(C(=O)N2CCN(c3ccccn3)CC2)c1,14.1
13,Cc1cc(C)cc(-n2ncc3c2CCCC3NC(=O)c2csnn2)c1 (centres unmarked),-84
14,C=CCOc1ccc2ccccc2c1CNn1cn[nH]c1=S,11.8
15,COc1ccc(-n2c(COc3ccccc3)n[nH]c2=S)cc1,11.7
16,Cc1cccc(-c2noc(CN(C(=O)c3ccc4c(c3)OCO4)C(C)C)n2)c1,0.803
17,Cc1cccc(C(=O)NC(=S)NNC(=O)c2ccccc2Cl)c1,11.5
18,O=C(COC(=O)Cc1ccccc1[N+](=O)[O-])NCc1ccccc1Cl,9.66
19,O=C1N=c2ccccc2=C1c1sc(=S)n(Cc2ccccc2Cl)c1O,4.3
20,Cn1c(=O)n(C)c2cc(NC(=O)CSc3nc4ccccc4c(=O)[nH]3)ccc21,17.6
